Measured values published in the supplement of paper PMC9046079.
Where a name gives a salt, the structure may show the parent alone. ± gives the standard deviation of the averaged measurements. This is one part of the list.

Experiments:
[1] = system: murine small intestinal organoids (ENR+CD Paneth differentiation); assay: cellular ATP (CellTiter-Glo 3D) relative to plate median (log10 fold change); higher = more viable cells; conditions: 6 d
[2] = system: murine small intestinal organoids (ENR+CD Paneth differentiation); assay: carbachol-stimulated secreted lysozyme activity relative to plate median (log10 fold change); higher = more Paneth cell lysozyme secretion; conditions: 6 d, carbachol 10 µM
[3] = system: murine small intestinal organoids (ENR+CD Paneth differentiation); assay: basal (non-stimulated) secreted lysozyme activity relative to plate median (log10 fold change); higher = more Paneth cell lysozyme secretion; conditions: 6 d
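Wherever basal (non-stimulated) secreted lysozyme activity relative to plate median is given: ISC-enriched organoid precursors grown as 2.5D pseudo-monolayer on Matrigel, compound given on day 0 and day 3, plate values LOESS-normalized before median fold change, three murine donors.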
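Wherever cellular ATP (CellTiter-Glo 3D) relative to plate median is given: 2.5D pseudo-monolayer culture of ISC-enriched organoids partly embedded atop Matrigel, compound added on day 0 and again on day 3, per-plate LOESS correction before median fold change.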

| SMILES | cellular ATP (log10) ([1]; 0.08 µM) | cellular ATP (log10) ([1]; 0.4 µM) | cellular ATP (log10) ([1]; 2 µM) | cellular ATP (log10) ([1]; 10 µM) | carbachol-stimulated secreted lysozyme activity (log10) ([2]; 0.08 µM) | carbachol-stimulated secreted lysozyme activity (log10) ([2]; 0.4 µM) | carbachol-stimulated secreted lysozyme activity (log10) ([2]; 2 µM) | carbachol-stimulated secreted lysozyme activity (log10) ([2]; 10 µM) | basal (log10) ([3]; 0.08 µM) | basal (log10) ([3]; 0.4 µM) | basal (log10) ([3]; 2 µM) | basal (log10) ([3]; 10 µM) |
| --- | --- | --- | --- | --- | --- | --- | --- | --- | --- | --- | --- | --- |
| CC(=O)c1c(C)c2cnc(Nc3ccc(N4CCNCC4)cn3)nc2n(C2CCCC2)c1=O | 0.169 ± 0.13 | -0.35 ± 0.49 | -0.0833 ± 0.58 | -0.677 ± 0.22 | 0.028 ± 0.11 | -0.0289 ± 0.045 | -0.161 ± 0.14 | -0.274 ± 0.026 | -0.00631 ± 0.1 | -0.0285 ± 0.044 | -0.0505 ± 0.058 | -0.132 ± 0.062 |
| N#CC[C@H](C1CCCC1)n1cc(-c2ncnc3[nH]ccc23)cn1 | 0.466 ± 0.18 | 0.254 ± 0.12 | 0.433 ± 0.18 | 0.423 ± 0.18 | 0.148 ± 0.033 | 0.0461 ± 0.08 | 0.105 ± 0.053 | 0.246 ± 0.21 | 0.151 ± 0.017 | 0.034 ± 0.047 | 0.135 ± 0.035 | 0.248 ± 0.19 |
| Cc1ccc(NC(=O)c2ccc(CN3CCN(C)CC3)cc2)cc1Nc1nccc(-c2cccnc2)n1 [Imatinib (STI571)] | -0.15 ± 0.41 | 0.0786 ± 0.13 | 0.0564 ± 0.096 | -0.0345 ± 0.19 | 0.0197 ± 0.046 | -0.0062 ± 0.008 | -0.0723 ± 0.061 | -0.00373 ± 0.042 | 0.0326 ± 0.024 | 0.012 ± 0.044 | 0.0249 ± 0.11 | -0.0382 ± 0.052 |
| O=C(NCc1ccccc1)c1csc(Nc2ccncn2)n1 [Thiazovivin] | 0.136 ± 0.12 | 0.0456 ± 0.13 | 0.348 ± 0.23 | 0.163 ± 0.14 | 0.212 ± 0.094 | -0.032 ± 0.041 | 0.0935 ± 0.19 | 0.037 ± 0.0029 | 0.0387 ± 0.14 | 0.131 ± 0.081 | 0.00863 ± 0.096 | 0.0562 ± 0.18 |
| CCn1c2ccccc2c2cc(Nc3ccnc(NCCCN4CCOCC4)n3)ccc21 | 0.0809 ± 0.27 | 0.0616 ± 0.12 | 0.0882 ± 0.24 | -0.757 ± 0.5 | 0.184 ± 0.12 | 0.0464 ± 0.0074 | 0.0265 ± 0.0048 | -0.421 ± 0.074 | 0.177 ± 0.23 | 0.0347 ± 0.061 | 0.029 ± 0.08 | -0.203 ± 0.19 |
| CC(C)OC(=O)OCOP(=O)(CO[C@H](C)Cn1cnc2c(N)ncnc21)OCOC(=O)OC(C)C [Tenofovir Disoproxil Fumarate] | 0.103 ± 0.11 | -0.0228 ± 0.2 | -0.492 ± 0.37 | -1.03 ± 0.69 | 0.00518 ± 0.11 | 0.0238 ± 0.047 | -0.218 ± 0.14 | -0.465 ± 0.0099 | 0.0187 ± 0.075 | 0.0413 ± 0.2 | -0.165 ± 0.087 | -0.256 ± 0.064 |
| CC(C)(C)n1nc(-c2ccc(Cl)cc2)c2c(N)ncnc21 | -0.701 ± 1.2 | 0.0385 ± 0.18 | -0.423 ± 0.79 | -0.384 ± 0.11 | 0.128 ± 0.0024 | 0.0172 ± 0.044 | 0.0651 ± 0.15 | 0.0189 ± 0.071 | 0.00247 ± 0.063 | 0.051 ± 0.097 | 0.102 ± 0.14 | 0.00463 ± 0.11 |
| O=c1cc(-c2ccc(O)cc2)oc2cc(O)cc(O)c12 [Apigenin] | 0.246 ± 0.15 | 0.214 ± 0.25 | 0.315 ± 0.27 | 0.0265 ± 0.16 | 0.181 ± 0.18 | 0.148 ± 0.1 | 0.167 ± 0.081 | 0.0952 ± 0.052 | 0.132 ± 0.071 | 0.13 ± 0.1 | 0.232 ± 0.11 | 0.0973 ± 0.094 |
| CS(=O)(=O)c1cccc(CNc2nc(Nc3ccc4c(c3)CCC(=O)N4)ncc2C(F)(F)F)c1 | 0.0768 ± 0.12 | -0.054 ± 0.17 | -0.434 ± 0.16 | -0.497 ± 0.15 | 0.132 ± 0.12 | 0.0181 ± 0.028 | -0.187 ± 0.33 | -0.367 ± 0.014 | 0.0102 ± 0.027 | -0.0461 ± 0.045 | -0.0576 ± 0.25 | -0.25 ± 0.15 |
| Nc1nc(CC(=O)Nc2ccc(CCNC[C@H](O)c3ccccc3)cc2)cs1 [Mirabegron] | 0.029 ± 0.087 | -0.335 ± 0.67 | 0.0194 ± 0.081 | -0.0515 ± 0.17 | 0.116 ± 0.1 | 0.0385 ± 0.015 | -0.0472 ± 0.045 | 0.0311 ± 0.0096 | 0.138 ± 0.074 | -0.0298 ± 0.037 | -0.0345 ± 0.023 | 0.0221 ± 0.14 |
| N#CSc1cc(SC#N)c(N)nc1N | 0.0984 ± 0.025 | -0.143 ± 0.55 | -0.136 ± 0.54 | -0.591 ± 0.095 | 0.0612 ± 0.21 | -0.0876 ± 0.029 | -0.0733 ± 0.14 | -0.205 ± 0.089 | 0.0156 ± 0.095 | -0.0076 ± 0.2 | -0.0385 ± 0.16 | -0.254 ± 0.054 |
| COc1c(C)c(C(=O)c2ccc(N)c(C(=O)O)c2)n2ccccc12 | 0.102 ± 0.034 | 0.131 ± 0.38 | 0.0984 ± 0.1 | -0.0636 ± 0.078 | 0.0136 ± 0.2 | 0.123 ± 0.078 | 0.0612 ± 0.041 | -0.0493 ± 0.075 | 0.0676 ± 0.14 | 0.0751 ± 0.023 | 0.0491 ± 0.028 | 0.0247 ± 0.23 |
| NC(=O)c1cnc(N[C@@H]2CCCC[C@@H]2N)nc1Nc1cccc(-n2nccn2)c1 | -0.0925 ± 0.091 | 0.167 ± 0.079 | -0.021 ± 0.33 | -0.878 ± 0.84 | -0.146 ± 0.083 | 0.0489 ± 0.11 | 0.0167 ± 0.47 | -0.502 ± 0.066 | -0.0722 ± 0.12 | 0.0186 ± 0.019 | -0.0816 ± 0.12 | -0.257 ± 0.15 |
| O=C(O)c1cc2cccc([N+](=O)[O-])c2[nH]1 | -0.171 ± 0.4 | -0.04 ± 0.28 | -0.0806 ± 0.048 | -0.0993 ± 0.17 | 0.072 ± 0.038 | 0.142 ± 0.11 | 0.0723 ± 0.17 | -0.0498 ± 0.13 | 0.0155 ± 0.088 | 0.0343 ± 0.11 | 0.0469 ± 0.14 | 0.0319 ± 0.25 |
| CCCC(=O)Nc1cccc(NC(=O)c2ccccc2Br)c1 | 0.0858 ± 0.13 | 0.028 ± 0.14 | 0.0656 ± 0.087 | -0.0351 ± 0.15 | -0.0278 ± 0.093 | -0.0608 ± 0.12 | -0.0159 ± 0.043 | -0.127 ± 0.16 | 0.0181 ± 0.097 | -0.0272 ± 0.05 | 0.0371 ± 0.034 | -0.0567 ± 0.076 |
| OCCn1cc(-c2cnc3nnn(Cc4ccc5ncccc5c4)c3n2)cn1 | 0.136 ± 0.21 | 0.258 ± 0.28 | -0.051 ± 0.19 | 0.116 ± 0.24 | 0.091 ± 0.048 | 0.253 ± 0.23 | 0.0617 ± 0.12 | 0.167 ± 0.17 | 0.0853 ± 0.03 | 0.161 ± 0.17 | 0.122 ± 0.057 | 0.0709 ± 0.035 |
| COc1cc(OC)c(NC(=O)Nc2cc(C)on2)cc1Cl | -0.0786 ± 0.27 | 0.0854 ± 0.22 | 0.114 ± 0.13 | 0.138 ± 0.18 | 0.109 ± 0.098 | 0.122 ± 0.17 | 0.0904 ± 0.084 | -0.039 ± 0.045 | 0.108 ± 0.088 | -0.0113 ± 0.06 | 0.0682 ± 0.074 | -0.0603 ± 0.051 |
| N#Cc1ccc(C(c2ccc(C#N)cc2)n2cncn2)cc1 [Letrozole] | -0.0129 ± 0.11 | 0.101 ± 0.11 | 0.0989 ± 0.17 | 0.171 ± 0.076 | -0.0217 ± 0.031 | 0.162 ± 0.16 | 0.000221 ± 0.075 | -0.031 ± 0.17 | 0.0655 ± 0.056 | 0.128 ± 0.052 | 0.00936 ± 0.091 | -0.00782 ± 0.13 |
| COc1cc2c(cc1O)CC[C@@H]1[C@@H]2CC[C@]2(C)[C@@H](O)CC[C@@H]12 [2-Methoxyestradiol (2-MeOE2)] | 0.299 ± 0.55 | 0.401 ± 0.27 | 0.227 ± 0.33 | -0.672 ± 0.57 | 0.147 ± 0.11 | 0.179 ± 0.25 | -0.0427 ± 0.023 | -0.373 ± 0.029 | 0.0214 ± 0.21 | 0.065 ± 0.22 | 0.00472 ± 0.012 | -0.139 ± 0.11 |
